The supplement of paper PMC11876631
Where a chain is given by its changes, count along the chain named. Numbers in names are those of the source. ± gives the standard deviation of the averaged measurements. Laboratory Escherichia coli strains with one amino-acid change in an essential protein, pooled on minimal glucose agar with carbenicillin or gentamicin at twice the control MIC (plus kanamycin and chloramphenicol for the plasmids), 48 h. Fold change of barcode share against drug-free plates; higher = less susceptible. Active = above 20 in both replicates (the paper's putatively resistant). '<' = one read or none on drug, '>' = one read or none on a drug-free plate. Shares are relative, so most strains fall below 1 when a few take over. Listed are strains with at least 15 reads on both drug-free plates, and hits; most hits rest on fewer reference reads. Replicate rank correlation about 0.5. Edits are read from barcodes.

B1: ispB M135W (protein)
chain: MNLEKINELTAQDMAGVNAAILEQLNSDVQLINQLGYYIVSGGGKRIRPMIAVLAARAVGYEGNAHVTIAALIEFIHTATLLHDDVVDESDMRRGKATANAAFGNAASVLVGDFIYTRAFQMMTSLGSLKVLEVWSEAVNVIAEGEVLQLMNVNDPDITEENYMRVIYSKTARLFEAAAQCSGILAGCTPEEEKGLQDYGRYLGTAFQLIDDLLDYNADGEQLGKNVGDDLNEGKPTLPLLHAMHHGTPEQAQMIRTAIEQGNGRHLLEPVLEAMNACGSLEWTRQRAEEEADKAIAALQVLPDTPWREALIGLAHIAVQRDR
B2: ispB I32A (protein)
chain: B1 chain with I32A, W135M
B3: ispB V271A (protein)
chain: B1 chain with W135M, V271A
B4: ispB V271W (protein)
chain: B1 chain with W135M, V271W
B5: ispB I32W (protein)
chain: B1 chain with I32W, W135M
B6: ispB V271Q (protein)
chain: B1 chain with W135M, V271Q
B7: ispB I32Q (protein)
chain: B1 chain with I32Q, W135M

Target: Escherichia coli (laboratory strain)
Assay: barcode share on antibiotic plates over drug-free plates; higher = less susceptible
Experimental: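 A pool of E. coli strains, each edited to carry one amino-acid change in an essential protein, was grown for 48 h on minimal glucose agar with or without antibiotic; strain barcodes were sequenced; mean of two replicates.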

[1] = antibiotic: carbenicillin, 2× MIC (3.1 µg/mL)
[2] = antibiotic: gentamicin, 2× MIC (MIC 0.45 µg/mL)

Row | Protein | fold change of barcode share [1] | fold change of barcode share [2]
1 | B1 | 0.109 ± 0.0077 | < 0.0167
2 | B2 | 0.502 ± 0.18 | 0.00898 ± 0.0057
3 | B3 | 0.231 ± 0.0065 | 0.00437 ± 0.0033
4 | B4 | 0.711 ± 0.16 | 208 [active]
5 | B5 | 0.535 ± 0.084 | 0.212 ± 0.15
6 | B6 | 0.899 ± 0.25 | 18.4 ± 5.3
7 | B7 | 0.474 ± 0.047 | < 0.00511
